# Some of the results follow. These are enrichments in a pooled selection; single values are uncertain. Each score is taken over the longer molecules that contain the sequence shown.
# Target: IMP3 full-length (UniProt O00425)
# Experiment: 6-mer SELEX enrichment z-score vs GST control; IMP3 is the RNA-binding protein IGF2BP3; higher = more enriched by binding
# Settings: construct: FL IMP3 (1-579); SELEX round: R4
# Procedure: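 SELEX-seq with GST-tagged full-length IMP3 and an N40 RNA pool, round 4. Each 6-mer is scored as an enrichment z-score of sequence tags containing it, normalised to the matching GST SELEX round. RNA written as DNA (T = U).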
# Sequence of UniProt O00425 (O00425 whole entry): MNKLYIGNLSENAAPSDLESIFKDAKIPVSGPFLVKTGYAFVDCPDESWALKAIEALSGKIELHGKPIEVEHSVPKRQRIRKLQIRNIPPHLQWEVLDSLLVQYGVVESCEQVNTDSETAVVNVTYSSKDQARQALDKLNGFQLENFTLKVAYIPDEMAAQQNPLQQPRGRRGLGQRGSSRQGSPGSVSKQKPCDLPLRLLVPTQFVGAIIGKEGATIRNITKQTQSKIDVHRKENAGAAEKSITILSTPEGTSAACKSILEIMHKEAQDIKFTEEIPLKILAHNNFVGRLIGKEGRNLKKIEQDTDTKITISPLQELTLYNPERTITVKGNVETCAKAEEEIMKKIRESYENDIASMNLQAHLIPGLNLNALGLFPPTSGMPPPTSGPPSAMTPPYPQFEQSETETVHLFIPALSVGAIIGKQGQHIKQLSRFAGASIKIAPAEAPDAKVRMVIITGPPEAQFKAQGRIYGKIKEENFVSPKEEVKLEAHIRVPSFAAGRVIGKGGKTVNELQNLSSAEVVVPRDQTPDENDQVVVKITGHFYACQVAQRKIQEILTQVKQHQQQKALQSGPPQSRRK
row,Sequence,6-mer SELEX enrichment z-score
1,CTGTAA,-0.337
2,CTAACA,0.146
3,CCGCTA,-0.113
4,CCCTTA,-0.518
5,CTGGGC,0.136
6,GGCCCG,0.203
7,CTCGAC,-0.703
8,TAACCG,-0.819
9,GGCTGG,0.819
10,AATGCT,-0.345
11,ATCGCT,0.201
12,GTATGG,0.262
13,TGATTG,-0.209
14,CAGAAC,0.624
15,CATTGT,0.662
16,ACTTCT,0.051
17,GCTGAC,-0.403
18,CTGCCG,-0.015
19,CCGCTG,0.045
20,CAGAGG,0.752

row,Sequence,6-mer SELEX enrichment z-score
1,GCAAAC,0.53
2,ATTAAC,-0.064
3,CGAAAG,-1.68
4,GGATGG,0.487
5,TCAAGT,0.358
6,ACATTC,2.22
7,GTACTC,-0.573
8,ATGAAC,-0.25
9,GTACGC,-0.02
10,GTGGGT,0.226
11,GGAAGA,-0.189
12,TTCGCT,0.128
13,CGTATC,-0.376
14,CTTCAT,1.19
15,CAGAGA,0.301
16,TGCTAC,-0.022
17,CGCAGG,0.606
18,ACAATA,2.15
19,TAAACG,-1.21
20,TGTACT,-0.257

# Source: the supplement of paper PMC6531468
